# Measurements published in the supplement of paper PMC8728848.
# This is one part of the list.
# Experiments:
# Test in all cases: glycan array binding signal (z-score within array); higher = stronger binding
# Conditions in all cases: glycan notation: IUPAC condensed, linker removed
# [1] = biological target: Neu5Ac(a2-3)Gal(b1-4)GlcNAc(b1-6)GalNAc
# Summary of the method: (§1)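 Columns mapping to the same glycan were averaged after glycan names were converted to IUPAC-condensed notation. The data come from 3228 arrays in the Consortium for Functional Glycomics database, limited to those with an available protein sequence. Binding is reported as a within-array Z-score averaged across arrays of one protein sequence and across linkers.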
# [2] = biological target: Neu5Ac(a2-3)Gal(b1-4)GlcNAc(b1-6)[Gal(b1-3)]GalNAc
# Summary of the method: as §1
# [3] = biological target: Neu5Ac(a2-3)Gal(b1-4)GlcNAc(b1-6)[Neu5Ac(a2-3)Gal(b1-3)]GalNAc
# Summary of the method: as §1
# [4] = biological target: Neu5Ac(a2-3)Gal(b1-4)GlcNAc6S
# Summary of the method: as §1
# [5] = biological target: Neu5Ac(a2-3)Gal(b1-4)[Fuc(a1-3)]GlcNAc
# Summary of the method: as §1
# [6] = biological target: Neu5Ac(a2-3)Gal(b1-4)[Fuc(a1-3)]GlcNAc(b1-2)Man
# Summary of the method: as §1
# [7] = biological target: Neu5Ac(a2-3)Gal(b1-4)[Fuc(a1-3)]GlcNAc(b1-3)Gal
# Summary of the method: as §1
# [8] = biological target: Neu5Ac(a2-3)Gal(b1-4)[Fuc(a1-3)]GlcNAc(b1-3)Gal(b1-4)GlcNAc
# Summary of the method: as §1
# [9] = biological target: Neu5Ac(a2-3)Gal(b1-4)[Fuc(a1-3)]GlcNAc(b1-3)Gal(b1-4)[Fuc(a1-3)]GlcNAc(b1-3)Gal(b1-4)[Fuc(a1-3)]GlcNAc
# Summary of the method: as §1
# [10] = biological target: Neu5Ac(a2-3)Gal(b1-4)[Fuc(a1-3)]GlcNAc(b1-3)GalNAc
# Summary of the method: as §1
# [11] = biological target: Neu5Ac(a2-3)Gal(b1-4)[Fuc(a1-3)]GlcNAc(b1-6)[Gal(b1-3)]GalNAc
# Summary of the method: as §1
# [12] = biological target: Neu5Ac(a2-3)Gal(b1-4)[Fuc(a1-3)]GlcNAc(b1-6)[Neu5Ac(a2-3)Gal(b1-3)]GalNAc
# Summary of the method: as §1
# [13] = biological target: Neu5Ac(a2-3)Gal(b1-4)[Fuc(a1-3)]GlcNAc6S
# Summary of the method: as §1
# [14] = biological target: Neu5Ac(a2-3)Gal6S(b1-4)GlcNAc
# Summary of the method: as §1
# [15] = biological target: Neu5Ac(a2-3)Gal6S(b1-4)[Fuc(a1-3)]GlcNAc
# Summary of the method: as §1
# Neu5Ac(a2-3)GalNAc = biological target: Neu5Ac(a2-3)GalNAc
# Summary of the method: as §1
# [16] = biological target: Neu5Ac(a2-3)GalNAc(b1-4)GlcNAc
# Summary of the method: as §1
# [17] = biological target: Neu5Ac(a2-3)[GalNAc(b1-4)]Gal(b1-4)Glc
# Summary of the method: as §1
# [18] = biological target: Neu5Ac(a2-3)[GalNAc(b1-4)]Gal(b1-4)GlcNAc
# Summary of the method: as §1
# [19] = biological target: Neu5Ac(a2-3)[GalNAc(b1-4)]Gal(b1-4)GlcNAc(b1-3)GalNAc
# Summary of the method: as §1
# [20] = biological target: Neu5Ac(a2-3)[Neu5Ac(a2-6)]GalNAc
# Summary of the method: as §1
# Neu5Ac(a2-6)Gal = biological target: Neu5Ac(a2-6)Gal
# Summary of the method: as §1
# [21] = biological target: Neu5Ac(a2-6)Gal(b1-3)GlcNAc(b1-3)[Gal(b1-4)GlcNAc(b1-6)]Gal(b1-4)Glc
# Summary of the method: as §1
# Neu5Ac(a2-6)Gal(b1-4)Glc = biological target: Neu5Ac(a2-6)Gal(b1-4)Glc
# Summary of the method: as §1
# [22] = biological target: Neu5Ac(a2-6)Gal(b1-4)GlcNAc
# Summary of the method: as §1
# [23] = biological target: Neu5Ac(a2-6)Gal(b1-4)GlcNAc(b1-2)Man
# Summary of the method: as §1
# [24] = biological target: Neu5Ac(a2-6)Gal(b1-4)GlcNAc(b1-2)Man(a1-3)Man(b1-4)GlcNAc(b1-4)GlcNAc
# Summary of the method: as §1
# [25] = biological target: Neu5Ac(a2-6)Gal(b1-4)GlcNAc(b1-2)Man(a1-3)[Gal(b1-4)GlcNAc(b1-2)Man(a1-6)]Man(b1-4)GlcNAc(b1-4)GlcNAc
# Summary of the method: as §1
# [26] = biological target: Neu5Ac(a2-6)Gal(b1-4)GlcNAc(b1-2)Man(a1-3)[GlcNAc(b1-2)Man(a1-6)]Man(b1-4)GlcNAc(b1-4)GlcNAc
# Summary of the method: as §1
# [27] = biological target: Neu5Ac(a2-6)Gal(b1-4)GlcNAc(b1-2)Man(a1-3)[GlcNAc(b1-4)][Neu5Ac(a2-6)Gal(b1-4)GlcNAc(b1-2)Man(a1-6)]Man(b1-4)GlcNAc(b1-4)GlcNAc
# Summary of the method: as §1
# [28] = biological target: Neu5Ac(a2-6)Gal(b1-4)GlcNAc(b1-2)Man(a1-3)[Man(a1-6)]Man(b1-4)GlcNAc(b1-4)GlcNAc
# Summary of the method: as §1
# [29] = biological target: Neu5Ac(a2-6)Gal(b1-4)GlcNAc(b1-2)Man(a1-3)[Neu5Ac(a2-3)Gal(b1-4)GlcNAc(b1-2)Man(a1-6)]Man(b1-4)GlcNAc(b1-4)GlcNAc
# Summary of the method: as §1
# [30] = biological target: Neu5Ac(a2-6)Gal(b1-4)GlcNAc(b1-2)Man(a1-3)[Neu5Ac(a2-6)Gal(b1-4)GlcNAc(b1-2)Man(a1-6)]Man(b1-4)GlcNAc(b1-4)GlcNAc
# Summary of the method: as §1
# [31] = biological target: Neu5Ac(a2-6)Gal(b1-4)GlcNAc(b1-2)Man(a1-3)[Neu5Ac(a2-6)Gal(b1-4)GlcNAc(b1-2)Man(a1-6)]Man(b1-4)GlcNAc(b1-4)[Fuc(a1-6)]GlcNAc
# Summary of the method: as §1
# [32] = biological target: Neu5Ac(a2-6)Gal(b1-4)GlcNAc(b1-2)Man(a1-6)Man(b1-4)GlcNAc(b1-4)GlcNAc
# Summary of the method: as §1
# [33] = biological target: Neu5Ac(a2-6)Gal(b1-4)GlcNAc(b1-2)Man(a1-6)[Gal(b1-4)GlcNAc(b1-2)Man(a1-3)]Man(b1-4)GlcNAc(b1-4)GlcNAc
# Summary of the method: as §1
# [34] = biological target: Neu5Ac(a2-6)Gal(b1-4)GlcNAc(b1-2)Man(a1-6)[GlcNAc(b1-2)Man(a1-3)]Man(b1-4)GlcNAc(b1-4)GlcNAc
# Summary of the method: as §1
# [35] = biological target: Neu5Ac(a2-6)Gal(b1-4)GlcNAc(b1-2)Man(a1-6)[Man(a1-3)]Man(b1-4)GlcNAc(b1-4)GlcNAc
# Summary of the method: as §1
# [36] = biological target: Neu5Ac(a2-6)Gal(b1-4)GlcNAc(b1-2)[Neu5Ac(a2-6)Gal(b1-4)GlcNAc(b1-4)]Man(a1-3)[GlcNAc(b1-4)][Neu5Ac(a2-6)Gal(b1-4)GlcNAc(b1-2)[Neu5Ac(a2-6)Gal(b1-4)GlcNAc(b1-6)]Man(a1-6)]Man(b1-4)GlcNAc(b1-4)GlcNAc
# Summary of the method: as §1
# [37] = biological target: Neu5Ac(a2-6)Gal(b1-4)GlcNAc(b1-2)[Neu5Ac(a2-6)Gal(b1-4)GlcNAc(b1-4)]Man(a1-3)[GlcNAc(b1-4)][Neu5Ac(a2-6)Gal(b1-4)GlcNAc(b1-4)Man(a1-6)]Man(b1-4)GlcNAc(b1-4)GlcNAc
# Summary of the method: as §1
# [38] = biological target: Neu5Ac(a2-6)Gal(b1-4)GlcNAc(b1-2)[Neu5Ac(a2-6)Gal(b1-4)GlcNAc(b1-6)]Man(a1-6)[Neu5Ac(a2-6)Gal(b1-4)GlcNAc(b1-2)Man(a1-3)][GlcNAc(b1-4)]Man(b1-4)GlcNAc(b1-4)GlcNAc
# Summary of the method: as §1
# [39] = biological target: Neu5Ac(a2-6)Gal(b1-4)GlcNAc(b1-3)Gal(b1-3)GlcNAc
# Summary of the method: as §1
# [40] = biological target: Neu5Ac(a2-6)Gal(b1-4)GlcNAc(b1-3)Gal(b1-4)GlcNAc
# Summary of the method: as §1
# [41] = biological target: Neu5Ac(a2-6)Gal(b1-4)GlcNAc(b1-3)Gal(b1-4)GlcNAc(b1-2)Man(a1-3)[Neu5Ac(a2-6)Gal(b1-4)GlcNAc(b1-3)Gal(b1-4)GlcNAc(b1-2)Man(a1-6)]GalNAc
# Summary of the method: as §1
# [42] = biological target: Neu5Ac(a2-6)Gal(b1-4)GlcNAc(b1-3)Gal(b1-4)GlcNAc(b1-3)Gal(b1-4)GlcNAc
# Summary of the method: as §1
# [43] = biological target: Neu5Ac(a2-6)Gal(b1-4)GlcNAc(b1-3)Gal(b1-4)GlcNAc(b1-3)Gal(b1-4)GlcNAc(b1-2)Man(a1-3)[Neu5Ac(a2-6)Gal(b1-4)GlcNAc(b1-3)Gal(b1-4)GlcNAc(b1-3)Gal(b1-4)GlcNAc(b1-2)Man(a1-6)]GalNAc
# Summary of the method: as §1
binder,measurement,setting,value
FimD (Bordetella pertussis) (protein) MPARVISFCGAALAVWAGLAVQPAMAVDPPVDCGRALGLHFWSSASLISDQTPDGTLIGKPVVGRSLLSKSCKVPDDIKEDLSDNHDGEPVDIVLELGSNYKIRPQSYGHPGIVVDLPFGSTEETGIAIYIDFGSSPMQKVGERQWLYPQKGEVLFDVLTINGDNAEVRYQAIKVGPLKRPRKLVLSQFPNLFTYKWVFMRGTSQERVLAQGTIDTDVATSTIDLKTCRYTSQTVSLPIIQRSALTGVGTTLGMTDFQMPFWCYGWPKVSVYMSATKTQTGVDGVALPATGQAAGMASGVGVQLINGKTQQPVKLGLQGKIALPEAQQTESATFSLPMKAQYYQTSTSTSAGKLSVTYAVTLNYD,glycan array binding signal (z-score),[1],-0.312
same,glycan array binding signal (z-score),[2],-0.179
same,glycan array binding signal (z-score),[3],-0.238
same,glycan array binding signal (z-score),[4],-0.031
same,glycan array binding signal (z-score),[5],-0.161
same,glycan array binding signal (z-score),[6],-0.289
same,glycan array binding signal (z-score),[7],-0.477
same,glycan array binding signal (z-score),[8],0.96
same,glycan array binding signal (z-score),[9],-0.135
same,glycan array binding signal (z-score),[10],1.03
same,glycan array binding signal (z-score),[11],0.701
same,glycan array binding signal (z-score),[12],0.086
same,glycan array binding signal (z-score),[13],0.009
same,glycan array binding signal (z-score),[14],-0.282
same,glycan array binding signal (z-score),[15],-0.632
same,glycan array binding signal (z-score),Neu5Ac(a2-3)GalNAc,-0.06
same,glycan array binding signal (z-score),[16],-0.354
same,glycan array binding signal (z-score),[17],-0.52
same,glycan array binding signal (z-score),[18],-0.037
same,glycan array binding signal (z-score),[19],0.943
same,glycan array binding signal (z-score),[20],-0.154
same,glycan array binding signal (z-score),Neu5Ac(a2-6)Gal,0.576
same,glycan array binding signal (z-score),[21],-0.473
same,glycan array binding signal (z-score),Neu5Ac(a2-6)Gal(b1-4)Glc,0.442
same,glycan array binding signal (z-score),[22],-0.256
same,glycan array binding signal (z-score),[23],-0.173
same,glycan array binding signal (z-score),[24],-0.443
same,glycan array binding signal (z-score),[25],-0.483
same,glycan array binding signal (z-score),[26],-0.36
same,glycan array binding signal (z-score),[27],-0.424
same,glycan array binding signal (z-score),[28],-0.383
same,glycan array binding signal (z-score),[29],-0.023
same,glycan array binding signal (z-score),[30],0.115
same,glycan array binding signal (z-score),[31],-0.073
same,glycan array binding signal (z-score),[32],-0.14
same,glycan array binding signal (z-score),[33],-0.133
same,glycan array binding signal (z-score),[34],-0.065
same,glycan array binding signal (z-score),[35],-0.519
same,glycan array binding signal (z-score),[36],0.238
same,glycan array binding signal (z-score),[37],0.042
same,glycan array binding signal (z-score),[38],-0.206
same,glycan array binding signal (z-score),[39],-0.347
same,glycan array binding signal (z-score),[40],-0.153
same,glycan array binding signal (z-score),[41],0.531
same,glycan array binding signal (z-score),[42],-0.146
same,glycan array binding signal (z-score),[43],1.34
